Experimental data: paper PMC3827193
Results are given in words; binding and its absence hold for the method and conditions named. For part of these data: Binding seen in cells or lysates may run through a third protein. Some results given as binding are weak or reduced against the parent protein; the word gives no strength. Sequences can lack the tags named with a protein.

Chains of the proteins cited; added tags and fusions are not shown. Residues count along the entry.
UniProt Q9P3A7, residues 7-815: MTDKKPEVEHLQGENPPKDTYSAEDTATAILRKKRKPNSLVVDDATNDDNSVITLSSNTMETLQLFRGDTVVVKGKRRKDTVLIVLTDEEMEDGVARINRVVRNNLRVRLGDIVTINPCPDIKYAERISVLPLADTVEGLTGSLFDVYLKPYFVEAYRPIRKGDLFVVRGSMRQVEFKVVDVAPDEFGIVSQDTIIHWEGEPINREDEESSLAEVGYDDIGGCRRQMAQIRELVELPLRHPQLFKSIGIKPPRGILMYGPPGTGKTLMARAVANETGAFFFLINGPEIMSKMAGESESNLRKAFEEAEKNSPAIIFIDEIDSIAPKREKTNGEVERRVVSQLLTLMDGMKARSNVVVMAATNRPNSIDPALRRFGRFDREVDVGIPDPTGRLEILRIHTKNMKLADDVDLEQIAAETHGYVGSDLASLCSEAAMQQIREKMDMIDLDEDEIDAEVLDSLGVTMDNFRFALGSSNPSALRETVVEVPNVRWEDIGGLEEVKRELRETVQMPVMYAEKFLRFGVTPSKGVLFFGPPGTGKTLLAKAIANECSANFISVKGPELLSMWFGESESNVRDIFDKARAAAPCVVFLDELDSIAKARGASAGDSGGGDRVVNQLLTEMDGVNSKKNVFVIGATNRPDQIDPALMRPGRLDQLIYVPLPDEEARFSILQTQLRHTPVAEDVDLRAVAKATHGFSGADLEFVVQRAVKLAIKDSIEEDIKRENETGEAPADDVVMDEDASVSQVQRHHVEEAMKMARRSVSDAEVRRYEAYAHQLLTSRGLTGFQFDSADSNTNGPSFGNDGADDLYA

How the values were obtained:
[1] = biological target: T1, Rfp1 fused to the Gal4 DNA-binding domain (GBD) (S. pombe) (UniProt O13826); assay: two-hybrid; S. cerevisiae PJ69-4A; baits fused to the Gal4 DNA-binding domain (pGBKT7), preys fused to the Gal4 activation domain (S. pombe cDNA library in pGAD-GH); ADE2 and HIS3 reporters (SC-leu-trp-ade; SC-leu-trp-his + 3-aminotriazol); screens, retests and spotted dilution series
T1 sequence: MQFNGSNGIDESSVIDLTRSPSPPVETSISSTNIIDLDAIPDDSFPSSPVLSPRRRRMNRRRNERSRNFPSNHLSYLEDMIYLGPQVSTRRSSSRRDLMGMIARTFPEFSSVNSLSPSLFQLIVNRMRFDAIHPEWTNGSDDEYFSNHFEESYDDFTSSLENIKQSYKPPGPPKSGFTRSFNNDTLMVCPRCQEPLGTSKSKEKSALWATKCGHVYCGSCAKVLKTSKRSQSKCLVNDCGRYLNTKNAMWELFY

[2] = biological target: T2, Pli1 fused to the Gal4 DNA-binding domain (GBD) (S. pombe) (UniProt O94451); assay: as above
T2 sequence: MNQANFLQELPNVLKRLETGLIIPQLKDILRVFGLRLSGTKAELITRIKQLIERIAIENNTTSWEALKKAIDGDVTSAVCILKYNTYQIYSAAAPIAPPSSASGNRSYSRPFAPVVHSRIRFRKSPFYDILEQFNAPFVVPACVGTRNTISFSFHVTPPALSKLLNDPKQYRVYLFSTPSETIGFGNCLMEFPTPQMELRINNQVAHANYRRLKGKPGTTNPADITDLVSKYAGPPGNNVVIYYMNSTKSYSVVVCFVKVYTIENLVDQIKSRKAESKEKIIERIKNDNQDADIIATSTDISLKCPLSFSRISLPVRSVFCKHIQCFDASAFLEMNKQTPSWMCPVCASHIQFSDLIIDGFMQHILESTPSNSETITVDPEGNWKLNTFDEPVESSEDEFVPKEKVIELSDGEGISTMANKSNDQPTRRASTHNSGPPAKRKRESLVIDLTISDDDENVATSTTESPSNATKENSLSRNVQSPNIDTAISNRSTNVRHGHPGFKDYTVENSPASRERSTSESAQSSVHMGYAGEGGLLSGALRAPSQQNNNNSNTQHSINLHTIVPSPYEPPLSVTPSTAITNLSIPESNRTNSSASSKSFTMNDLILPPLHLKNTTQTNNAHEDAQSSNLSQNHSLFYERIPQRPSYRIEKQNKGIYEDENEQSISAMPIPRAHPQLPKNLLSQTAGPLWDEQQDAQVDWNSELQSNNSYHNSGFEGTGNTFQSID

Cdc48-GFP (S. pombe) = Cdc48-GFP (S. pombe) (UniProt Q9P3A7); assay: co-IP; Cdc48-GFP on GFP-Trap_M beads from S. pombe cell extracts (25 mM Tris pH 7.5, 50 mM NaCl, 10% glycerol, 0.1% Triton, 2 mM DTT), 1-2 hr at 4 C, washed 4 times with 300 mM NaCl; Slx8-Myc detected with a Myc antibody
GST-Pli1 (S. pombe) = biological target: T3, GST-Pli1 (S. pombe) (UniProt O94451); assay: pull-down; ~20 ug of GST-fusion protein incubated with the in vitro translation product overnight at 4 C in 1x PBS, 0.1% NP-40, 5% glycerol, 1 mM DTT; glutathione-Sepharose beads 3 hr, washed 5 times; Ufd1 detected by phosphorimaging; only the target purified
T3 sequence: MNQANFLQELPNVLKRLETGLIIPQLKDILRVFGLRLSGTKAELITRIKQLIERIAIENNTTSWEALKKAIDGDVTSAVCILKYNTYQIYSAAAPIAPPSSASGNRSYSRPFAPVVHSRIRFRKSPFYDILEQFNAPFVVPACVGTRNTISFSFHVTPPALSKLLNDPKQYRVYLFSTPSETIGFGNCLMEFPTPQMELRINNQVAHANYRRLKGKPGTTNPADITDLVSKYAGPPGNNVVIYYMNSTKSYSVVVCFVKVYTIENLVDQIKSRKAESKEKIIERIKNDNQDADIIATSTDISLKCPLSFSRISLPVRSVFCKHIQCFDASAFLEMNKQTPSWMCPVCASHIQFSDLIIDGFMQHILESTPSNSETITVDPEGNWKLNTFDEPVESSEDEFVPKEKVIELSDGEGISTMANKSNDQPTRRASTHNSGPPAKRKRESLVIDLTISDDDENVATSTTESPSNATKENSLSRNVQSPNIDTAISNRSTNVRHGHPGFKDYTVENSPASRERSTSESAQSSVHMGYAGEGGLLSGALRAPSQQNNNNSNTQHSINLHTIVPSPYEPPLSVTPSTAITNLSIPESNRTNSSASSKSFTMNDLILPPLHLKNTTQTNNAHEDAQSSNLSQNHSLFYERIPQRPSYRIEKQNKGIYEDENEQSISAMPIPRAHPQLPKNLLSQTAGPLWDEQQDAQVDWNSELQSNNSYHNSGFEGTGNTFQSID

GST-Rfp1 (S. pombe) = biological target: T4, GST-Rfp1 (S. pombe) (UniProt O13826); assay: as above
T4 sequence: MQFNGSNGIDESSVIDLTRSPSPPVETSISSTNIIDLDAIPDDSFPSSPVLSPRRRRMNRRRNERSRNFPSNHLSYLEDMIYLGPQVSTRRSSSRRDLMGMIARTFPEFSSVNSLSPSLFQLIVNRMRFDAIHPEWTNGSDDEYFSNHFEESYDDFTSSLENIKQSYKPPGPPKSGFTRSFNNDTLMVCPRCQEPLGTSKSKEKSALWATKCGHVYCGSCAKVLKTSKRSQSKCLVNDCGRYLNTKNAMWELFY

B1: C-terminal domain of Ufd1 (aa 248-342) fused to the Gal4 DNA activation domain (GAD) (domain or fragment, UniProt O42915 248-342)
chain: LMKGTGTKLNGKEVAEVPKINLLDVEKQECPAPLILPLGTYFFGYPYKAPSIEEDSKKDPNLFKFEGAGTSLRASRKTNGTMGKGSSDDPIDIDA
Question: For B1, which binding [1] is on record?
Answer: The binding was “binds”.

Question: What about the binding [2] of the same binder?
Answer: Its binding is “binds”.

B2: Slx8-Myc (protein, UniProt P87176 1-269)
chain: MPPAHKRDTNVRNLSAPYNIPSQSARVAAGNAAINRRRSSPVENSPGNGFPVSEDATDYPSGTTSENESLPLNRAPRSLREVASELAQEETLPVETSDLNIDVESEVFDLEDINFQNDADDINQRFTYNNHPASVENSLTNVNSIHAQPTTISDMIDLTDETSYDPRKQKFEQGKNPSTTNAEIEKEEPSKKQVVPSSQRLADYKCVICLDSPENLSCTPCGHIFCNFCILSALGTTAATQKCPVCRRKVHPNKVICLEMMLGSQKKKS
Question: For B2, which binding (Cdc48-GFP (S. pombe)) is on record?
Answer: The binding was “binds”.

B3: Rfp1 fused to the Gal4 DNA-binding domain (GBD) (protein, UniProt O13826 1-254)
chain: MQFNGSNGIDESSVIDLTRSPSPPVETSISSTNIIDLDAIPDDSFPSSPVLSPRRRRMNRRRNERSRNFPSNHLSYLEDMIYLGPQVSTRRSSSRRDLMGMIARTFPEFSSVNSLSPSLFQLIVNRMRFDAIHPEWTNGSDDEYFSNHFEESYDDFTSSLENIKQSYKPPGPPKSGFTRSFNNDTLMVCPRCQEPLGTSKSKEKSALWATKCGHVYCGSCAKVLKTSKRSQSKCLVNDCGRYLNTKNAMWELFY
Question: B3 was tested. Which binding [2] did it give?
Answer: Its binding is “binds”.

B4: S. pombe SUMO fused to GAD (protein, UniProt O13351 1-117)
chain: MSESPSANISDADKSAITPTTGDTSQQDVKPSTEHINLKVVGQDNNEVFFKIKKTTEFSKLMKIYCARQGKSMNSLRFLVDGERIRPDQTPAELDMEDGDQIEAVLEQLGGCTHLCL
Question: B4 was tested. Which binding [1] did it give?
Answer: The binding was “binds”.

Question: And the binding [2]?
Answer: The binding was “binds”.

B5: in vitro-translated, 35S-labeled Ufd1 (aa 110-342) (domain or fragment, UniProt O42915 110-342)
chain: MMTTLSLEPGDLVRVINTDIAQGSYVKLQPQSVNFLDITDHRAVLENALRNFSTLTKSDIFEILYNDQVYQIKVIDVQPDDSRHVVSVVETDLVVDFDPPIGYEESLQKNKQQNIAGVQGTMVTKIGYDELVRQGDSNLMKGTGTKLNGKEVAEVPKINLLDVEKQECPAPLILPLGTYFFGYPYKAPSIEEDSKKDPNLFKFEGAGTSLRASRKTNGTMGKGSSDDPIDIDA
modifications: 35S-methionine-labelled
Question: Which binding (GST-Pli1 (S. pombe)) does the source give for B5 here?
Answer: Its binding is “binds”.

Question: And the binding (GST-Rfp1 (S. pombe))?
Answer: The binding was “binds”.

B6: Ufd1CtΔSIM (domain or fragment, UniProt O42915 248-335)
chain: LMKGTGTKLNGKEVAEVPKINLLDVEKQECPAPLILPLGTYFFGYPYKAPSIEEDSKKDPNLFKFEGAGTSLRASRKTNGTMGKGSSD
Question: With B6 as the binder, how does the binding [1] read?
Answer: The binding was “no binding”.

Question: And the binding [2]?
Answer: The binding was “no binding”.

B7: Ufd1CtDAADADA (domain or fragment, UniProt O42915 248-342)
chain: LMKGTGTKLNGKEVAEVPKINLLDVEKQECPAPLILPLGTYFFGYPYKAPSIEEDSKKDPNLFKFEGAGTSLRASRKTNGTMGKGSSDDAADADA
Question: With B7 as the binder, how does the binding [1] read?
Answer: Its binding is “no binding”.

Question: And the binding [2]?
Answer: Its binding is “no binding”.
